The values that follow come from a collection of fitness landscapes (doi:10.1016/j.celrep.2020.107928).

Whole data set: some 81,000 sequences, median “one-hybrid fitness for binding NBS DNA” near -0.1, cut for the highest 2% near 0.36. The list shows a part of the results. A value given as a limit tells only on which side of the number the result lay.

B1: Caulobacter ParB omega fusion; a variant is named by its letters at X, in order, B8GW30 (parent)
chain: MESVVVGEPGMSEGRRGLGRGLSALLGEVDAAPAQAPGEQLGGSREAPIEILQRNPDQPRRTFREEDLEDLSNSIREKGVLQPILVRPSPDTAGEYQIVAGERAWRAAQRAGLKTVPIMVRELDDLAVLEIGIIENVQRADLNVLEEALSYKVLMEKFERTQENIAQTIGKSXSHVANXMRLLXLPDEVQSYLVSGELTAXHARAIAAAADPVALAKQIIEGGLSVRETEALARKAPNLSAGKSKGGRPPRVKDTDTQALESDLSSVLGLDVSIDHRGSTGTLTITYATLEQLDDLCNRLTRGI

In the test the parent is B1. Put plainly: one-hybrid fitness for binding NBS DNA (the Noc-binding site; scaled: cognate 1, non-cognate 0); higher = stronger binding. Conditions: with NBS DNA site. In short, it runs like this:
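Pre- and post-selection plasmids were Illumina-sequenced, three replicate libraries were pooled, and any variant with under 10 reads was removed. The libraries were Caulobacter ParB with four specificity codons randomised, selected in E. coli USO through a HIS3 reporter whose site is 19 bp from the promoter. Cells grew 48 hours at 37°C on M9 without histidine, with 0.1 mM IPTG and 5 mM 3-AT. Fitness is the log change in variant-to-wild-type read ratio, rescaled against cognate and non-cognate.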
As for PAWE, the “one-hybrid fitness for binding NBS DNA” value is at most 0.2.
As to RLMR, the “one-hybrid fitness for binding NBS DNA” value was found to be 0.341.
In the case of PEMG, the “one-hybrid fitness for binding NBS DNA” value was at most 0.2.
To CMKL belongs at most 0.2.
Take RVVG: the “one-hybrid fitness for binding NBS DNA” value was at most 0.2.
To TEAA belongs at most 0.2.
In the case of CATF, the “one-hybrid fitness for binding NBS DNA” value was at most 0.2.
On to LKHY, for which the “one-hybrid fitness for binding NBS DNA” value was at most 0.2.
For the variant KRTV, the “one-hybrid fitness for binding NBS DNA” value was at most 0.2.
To VEEG belongs at most 0.2.
To QYIR belongs 0.346; to HATP, at most 0.2; to ERWC, at most 0.2.
Regarding WMLR, the “one-hybrid fitness for binding NBS DNA” value is at most 0.2.
For the variant AGLY, the “one-hybrid fitness for binding NBS DNA” value was at most 0.2.
To MNVT belongs at most 0.2; to LWRK, at most 0.2.
For LIRG, the “one-hybrid fitness for binding NBS DNA” value was at most 0.2.
On to YKWS, for which the “one-hybrid fitness for binding NBS DNA” value is at most 0.2.
To YSPA belongs at most 0.2; to RSYK, at most 0.2.
As to FAMC, the “one-hybrid fitness for binding NBS DNA” value was at most 0.2.
As to TGDN, the “one-hybrid fitness for binding NBS DNA” value was at most 0.2.
In the case of GYEV, the “one-hybrid fitness for binding NBS DNA” value is at most 0.2.
Regarding EGIR, the “one-hybrid fitness for binding NBS DNA” value was at most 0.2.
To QQMR belongs 0.584.
To RFRT belongs 0.456.
Turning to TRMQ, the “one-hybrid fitness for binding NBS DNA” value was at most 0.2.
To VSWR belongs at most 0.2; to CNER, at most 0.2; to NRST, at most 0.2.
To VRAH belongs at most 0.2; to DAYD, at most 0.2; to VVNG, at most 0.2.
To NHKT belongs at most 0.2; to YTPI, at most 0.2; to AAER, at most 0.2.
MIIR: the “one-hybrid fitness for binding NBS DNA” value is at most 0.2.
As to MIYR, the “one-hybrid fitness for binding NBS DNA” value is at most 0.2.
Consider SAIK, for which the “one-hybrid fitness for binding NBS DNA” value is at most 0.2.
Turning to HLVS, the “one-hybrid fitness for binding NBS DNA” value was at most 0.2.
On to KQSR, for which the “one-hybrid fitness for binding NBS DNA” value is at most 0.2.
As to CLGL, the “one-hybrid fitness for binding NBS DNA” value is at most 0.2.
For the variant RRTW, the “one-hybrid fitness for binding NBS DNA” value was at most 0.2.
Take SARS: the “one-hybrid fitness for binding NBS DNA” value was at most 0.2.
To SFTE belongs at most 0.2; to CSYC, at most 0.2.
To PLNK belongs at most 0.2; to TVGS, at most 0.2.
Turning to DINC, the “one-hybrid fitness for binding NBS DNA” value is at most 0.2.
To CEER belongs at most 0.2.
To LLDC belongs at most 0.2; to GLQC, at most 0.2; to PPNP, at most 0.2.
As to WRTT, the “one-hybrid fitness for binding NBS DNA” value is at most 0.2.
As to MWTG, the “one-hybrid fitness for binding NBS DNA” value was at most 0.2.
To GETS belongs at most 0.2; to RAMR, 0.341; to ERNS, at most 0.2.
As for PCGC, the “one-hybrid fitness for binding NBS DNA” value was at most 0.2.
Turning to VYRS, the “one-hybrid fitness for binding NBS DNA” value is at most 0.2.
To RTLN belongs at most 0.2; to YNAF, at most 0.2.
To CQKR belongs 0.212; to LPEI, at most 0.2; to RERI, at most 0.2.
To HYTL belongs at most 0.2; to TNSW, at most 0.2; to PRHV, at most 0.2.
With EIHM, the “one-hybrid fitness for binding NBS DNA” value is at most 0.2.
To RLAM belongs at most 0.2; to HRDW, at most 0.2.
To GMLR belongs at most 0.2; to CGHT, at most 0.2; to HDNK, at most 0.2.
For RRSL, the “one-hybrid fitness for binding NBS DNA” value is at most 0.2.
To QVLF belongs at most 0.2; to LCIW, at most 0.2; to EEAG, at most 0.2.
For the variant PSPK, the “one-hybrid fitness for binding NBS DNA” value is at most 0.2.
With RNFC, the “one-hybrid fitness for binding NBS DNA” value was at most 0.2.
To ESKV belongs at most 0.2; to QLTK, at most 0.2; to RENR, at most 0.2.
On to CEST, for which the “one-hybrid fitness for binding NBS DNA” value is at most 0.2.
With LTLC, the “one-hybrid fitness for binding NBS DNA” value was at most 0.2.
To EYSC belongs at most 0.2; to YADT, at most 0.2; to WSGV, at most 0.2.
To YLSK belongs at most 0.2; to TKTL, at most 0.2; to RGAS, at most 0.2.
In the case of RNQH, the “one-hybrid fitness for binding NBS DNA” value is at most 0.2.
To SQMG belongs at most 0.2; to LARG, at most 0.2.
To TYNN belongs at most 0.2.
To NNSM belongs at most 0.2; to TFPE, at most 0.2; to WHHR, at most 0.2.
On to IVYS, for which the “one-hybrid fitness for binding NBS DNA” value was at most 0.2.
For AIGT, the “one-hybrid fitness for binding NBS DNA” value was at most 0.2.
Regarding VCPS, the “one-hybrid fitness for binding NBS DNA” value was at most 0.2.
To DPQI belongs at most 0.2; to RWTI, at most 0.2; to QICI, at most 0.2.
To KLND belongs at most 0.2; to LPTR, at most 0.2; to TGKR, at most 0.2.
To PFAA belongs at most 0.2.
With SEMK, the “one-hybrid fitness for binding NBS DNA” value is at most 0.2.
CLTK: the “one-hybrid fitness for binding NBS DNA” value is at most 0.2.
To VYYC belongs at most 0.2; to GTMM, at most 0.2; to GNLS, at most 0.2.
To QEWT belongs at most 0.2; to MGMT, at most 0.2; to TTMC, at most 0.2.
For the variant WVAC, the “one-hybrid fitness for binding NBS DNA” value was at most 0.2.
For the variant QAKY, the “one-hybrid fitness for binding NBS DNA” value was determined as 0.531.
In the case of QNER, the “one-hybrid fitness for binding NBS DNA” value was determined as 0.212.
To THAR belongs at most 0.2; to GQWG, at most 0.2; to HRRG, at most 0.2.
To IGRW belongs at most 0.2; to GPLI, at most 0.2.
Consider CPAM, for which the “one-hybrid fitness for binding NBS DNA” value was at most 0.2.
To QAYT belongs 0.322.
To SGSV belongs at most 0.2.
As to TWDE, the “one-hybrid fitness for binding NBS DNA” value is at most 0.2.
To IVNW belongs at most 0.2; to DIPP, at most 0.2; to QFFG, 0.554.
For NAPQ, the “one-hybrid fitness for binding NBS DNA” value was at most 0.2.
To IMKR belongs 0.283.
Regarding HLNN, the “one-hybrid fitness for binding NBS DNA” value is at most 0.2.
Consider TQIG, for which the “one-hybrid fitness for binding NBS DNA” value was at most 0.2.
In the case of AGKF, the “one-hybrid fitness for binding NBS DNA” value was at most 0.2.
For the variant FWDR, the “one-hybrid fitness for binding NBS DNA” value is at most 0.2.
To THNG belongs at most 0.2; to NDGD, at most 0.2; to DAGI, at most 0.2.
For NVLR, the “one-hybrid fitness for binding NBS DNA” value was at most 0.2.
As for QPKF, the “one-hybrid fitness for binding NBS DNA” value was at most 0.2.
To RIGS belongs 0.369; to PMSS, at most 0.2; to ASAV, at most 0.2.
For the variant KNFS, the “one-hybrid fitness for binding NBS DNA” value is at most 0.2.
Regarding PMQS, the “one-hybrid fitness for binding NBS DNA” value was at most 0.2.
To RSGS belongs 0.419; to RFAY, at most 0.2.
For the variant SAWM, the “one-hybrid fitness for binding NBS DNA” value is at most 0.2.
In the case of NKAW, the “one-hybrid fitness for binding NBS DNA” value was at most 0.2.
To SKKR belongs 0.213.
